# Reference: the supplement of paper PMC4604168 (melanoma cell lines)
# The other results are listed elsewhere or left out. Single values are uncertain, as repeats are few or missing.
# Assays:
# Experiment in all cases: cell count relative to DMSO control; melanoma cells; higher = more viable cells
# Conditions in all cases: library dose: standard library concentration; 72 h
# SkMel28 = tested on: SkMel28
# SkMel2 = tested on: SkMel2
# SkMel30 = tested on: SkMel30
# SkMel5 = tested on: SkMel5
# UACC257 = tested on: UACC257
# UACC62 = tested on: UACC62
# WM115 = tested on: WM115
# WM1716 = tested on: WM1716
# WM1745 = tested on: WM1745
# WM3526 = tested on: WM3526
# 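Note: cells treated in 1,536-well plates, then fixed and DAPI-stained, with nuclei counted from automated high-throughput microscope images.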
Structure (SMILES),cell count (SkMel28) [%],cell count (SkMel2) [%],cell count (SkMel30) [%],cell count (SkMel5) [%],cell count (UACC257) [%],cell count (UACC62) [%],cell count (WM115) [%],cell count (WM1716) [%],cell count (WM1745) [%],cell count (WM3526) [%]
"C[C@]12O[C@H](C[C@]1(O)CO)n1c3ccccc3c3c4c(c5c6ccccc6n2c5c31)CNC4=O [Lestaurtinib] + CN1CCN(c2ccc3nc(-c4c(N)c5c(F)cccc5[nH]c4=O)[nH]c3c2)CC1 [Dovitinib] (first compound 0.02 µM, partner dose 0.5 µM)",45,57.3,55.2,42.9,78.1,53.6,38.6,78.4,64.4,49.1
"C[C@]12O[C@H](C[C@]1(O)CO)n1c3ccccc3c3c4c(c5c6ccccc6n2c5c31)CNC4=O [Lestaurtinib] + C[C@@H](Oc1cc(-c2cnn(C3CCNCC3)c2)cnc1N)c1c(Cl)ccc(F)c1Cl [Crizotinib] (first compound 0.02 µM, partner dose 1 µM)",64,88.5,76.6,61.1,71,73.2,54.8,101,71.1,75
"N.N.[Cl][Pt][Cl] [cisplatin] + CN(NC(=O)CC(=O)NN(C)C(=S)c1ccccc1)C(=S)c1ccccc1 [STA4783] (first compound 8 µM, partner dose 0.03 µM)",119,96.5,82.7,92.3,85.1,105,87.9,101,84,107
"C[As](C)SC[C@H](NC(=O)CC[C@H](N)C(=O)O)C(=O)NCC(=O)O [Darinaparsin] + Cc1ccc(NC(=O)c2cccc(N(C)C)c2)cc1NC(=O)c1ccc(O)cc1 [ZM336372] (first compound 2 µM, partner dose 10 µM)",82.5,76.8,95.6,61.5,80.7,101,93.3,84.3,121,77
"C[C@]12O[C@H](C[C@]1(O)CO)n1c3ccccc3c3c4c(c5c6ccccc6n2c5c31)CNC4=O [Lestaurtinib] + CS(=O)(=O)CCNCc1ccc(-c2ccc3ncnc(Nc4ccc(OCc5cccc(F)c5)c(Cl)c4)c3c2)o1 [lapatinib] (first compound 0.02 µM, partner dose 4 µM)",49.8,77.1,73.7,48.2,90.4,45,83,96,106,70
"Cn1cc(C2=C(c3cn(C4CCN(Cc5ccccn5)CC4)c4ccccc34)C(=O)NC2=O)c2ccccc21 [Enzastaurin] + Nc1cccc2c1CN(C1CCC(=O)NC1=O)C2=O [lenalidomide] (first compound 4 µM, partner dose 5 µM)",103,103,90.7,72.9,87,78.4,75.5,71.4,69.6,89.1
"C[As](C)SC[C@H](NC(=O)CC[C@H](N)C(=O)O)C(=O)NCC(=O)O [Darinaparsin] + COc1ccc(-c2ccc3c(N4CCOCC4)nc(N4C[C@@H](C)O[C@@H](C)C4)nc3n2)cc1CO [KU0063794] (first compound 2 µM, partner dose 0.1 µM)",56.5,90.3,79.4,53.6,94.1,98,75.1,55.2,87.8,79
"C[As](C)SC[C@H](NC(=O)CC[C@H](N)C(=O)O)C(=O)NCC(=O)O [Darinaparsin] + CC(C)CCN1c2nc(Nc3cc(F)c(O)c(F)c3)ncc2N(C)C(=O)C1C [BID1870] (first compound 2 µM, partner dose 1 µM)",58.1,69,64.5,54.8,86.3,55.2,89.1,76.5,90.2,60.9
"Cn1cc(C2=C(c3cn(C4CCN(Cc5ccccn5)CC4)c4ccccc34)C(=O)NC2=O)c2ccccc21 [Enzastaurin] + COc1ccc(C2=N[C@@H](c3ccc(Cl)cc3)[C@@H](c3ccc(Cl)cc3)N2C(=O)N2CCNC(=O)C2)c(OC(C)C)c1 [Nutlin-3] (first compound 4 µM, partner dose 0.5 µM)",37.1,120,107,84.2,80.4,54.6,106,77.7,77.8,99.1
"Cn1cc(C2=C(c3cn(C4CCN(Cc5ccccn5)CC4)c4ccccc34)C(=O)NC2=O)c2ccccc21 [Enzastaurin] + NC1(c2ccc(-c3nc4ccn5c(=O)[nH]nc5c4cc3-c3ccccc3)cc2)CCC1 [MK2206] (first compound 4 µM, partner dose 2 µM)",60.5,48.4,83.3,67.8,89.6,52.2,88.6,71.6,46.1,94.3
